Laboratory results reported in PubChem BioAssay AID1347430 (National Center for Advancing Translational Sciences (NCATS), 2020).
Among all 91,000 compounds or so, about 130 (0.14%) were called active. The shares of active, inactive and inconclusive entries below differ from those in the screen. Calls come from the whole dose curve; as a rule, active = well fitted inhibition curve with a large enough effect; inconclusive = small, poorly fitted or top-dose-only effect; inactive = flat fitted curve, though single readings scatter. Where the call is inconclusive, the potency comes from a doubtful curve fit.

System: Uracil-DNA glycosylase
Assay: Primary qHTS assay for inhibitors of Activation Induced Cytidine Deaminase (AID): UDG Counterscreen signal; note: nearly all actives have a fitted effect of over 65% in size
Settings: FRET deamination/UDG coupled assay, UDG read, 4 h; series mostly up to 115 µM
Potency is the fitted concentration of half-maximal effect; tags give direction and shape of the fitted curve.

**Q.** For `COc1cc(-c2nnc(SCCOc3ccccc3)o2)cc(OC)c1OC`, which Potency is on record?
**A.** The Potency was inconclusive: 89.1 µM [inhibitor, single point].

**Q.** How did the Potency turn out when `CCCN(CCC)S(=O)(=O)c1ccc(OC)c2ncccc12` was run?
**A.** Its Potency is “inactive”.

**Q.** For `COc1cccc(-c2nn(C)c3sc(C(=O)NCc4ccc(OC)cc4OC)cc23)c1`, which Potency is on record?
**A.** Its Potency is inconclusive: 89.1 µM [inhibitor, partial curve, poor fit].

**Q.** Which Potency does the source give for `O=C(O)CN(CCCc1ccccc1)CC(=O)O` here?
**A.** Its Potency is “inactive”.

**Q.** `CCCc1ccc(OC(=O)c2ccc3c(c2)-c2ccccc2C3=O)cc1` was tested. Which Potency did it give?
**A.** Its Potency is “inactive”.

**Q.** For `CN(Cc1ccccc1)C(=O)COC(=O)c1ccccc1-c1nc2ccccc2s1`, which Potency is on record?
**A.** Its Potency is inconclusive: 89.1 µM [inhibitor, single point].

**Q.** With `Cc1ccc(NC(=O)c2ccc(C)c(S(=O)(=O)N3CCCCCC3)c2)cc1` as the molecule, how does the Potency read?
**A.** Its Potency is “inactive”.

**Q.** Which Potency does the source give for `O=C(CCc1ncc(-c2ccccc2Cl)o1)NCc1ccc(Cl)cc1Cl` here?
**A.** The Potency was “inactive”.

**Q.** `COc1cccc(CNC(=O)C(CC(C)C)NS(=O)(=O)c2ccc3c(c2)oc(=O)n3C)c1` (configuration not stated) was tested. Which Potency did it give?
**A.** The Potency was inconclusive: 89.1 µM [inhibitor, single point].

**Q.** `CC(=O)N(C)CCCNC(=O)c1nc2ccccc2c(=O)[nH]1` was tested. Which Potency did it give?
**A.** Its Potency is “inactive”.

**Q.** With `Nc1nnnn1NCc1c(OCc2ccc(Cl)cc2Cl)ccc2ccccc12` as the molecule, how does the Potency read?
**A.** The Potency was “inactive”.

**Q.** For `Cc1ccc(CNC(=O)c2ccc3c(c2)c(C)c(C)n3Cc2ccccc2)o1`, which Potency is on record?
**A.** Its Potency is inconclusive: 89.1 µM [inhibitor, single point].

**Q.** For `CCCCOc1ccc(C(=O)NCCc2csc(-c3cccc(F)c3)n2)cc1`, which Potency is on record?
**A.** The Potency was “inactive”.

**Q.** Which Potency does the source give for `COc1cc(NC(=O)c2ccc3c(c2)NC(=O)CS3)cc(OC)c1OC` here?
**A.** Its Potency is “inactive”.

**Q.** With `Fc1ccc(-n2ncc3c(NCCCn4ccnc4)ncnc32)cc1` as the molecule, how does the Potency read?
**A.** Its Potency is inconclusive: 100 µM [inhibitor, single point].

**Q.** `O=C(CSc1nnc2scc(-c3ccc(Cl)cc3)n12)Nc1cccc(C(F)(F)F)c1` was tested. Which Potency did it give?
**A.** Its Potency is inconclusive: 79.4 µM [inhibitor, partial curve, poor fit].

**Q.** `CCN1CCN(CC(=O)c2c(C)[nH]c3cc(C)ccc23)CC1` was tested. Which Potency did it give?
**A.** The Potency was “inactive”.

**Q.** For `Fc1ccc(C(Nc2ccccc2Cl)c2nnc(-c3ccccc3Cl)o2)cc1` (configuration not stated), which Potency is on record?
**A.** Its Potency is inconclusive: 89.1 µM [inhibitor, partial curve, poor fit].

**Q.** `CSc1ccc(CCNC(=O)c2ccc3c(c2)nc2n3CCCCC2)cc1` was tested. Which Potency did it give?
**A.** Its Potency is inconclusive: 89.1 µM [inhibitor, single point].

**Q.** Which Potency does the source give for `COc1ccc2ccc(OC(=O)c3ccccc3)cc2c1` here?
**A.** The Potency was “inactive”.

**Q.** How did the Potency turn out when `COc1cccc(NC(=O)NCc2ccc3c(c2)CCN3C(=O)c2ccccc2)c1` was run?
**A.** The Potency was inconclusive: 89.1 µM [inhibitor, single point].

**Q.** `CCc1ccc(NC(=O)c2cc(C(C)=O)n3ccccc23)cc1` was tested. Which Potency did it give?
**A.** The Potency was inconclusive: 79.4 µM [inhibitor, single point].

**Q.** `CCc1nn(-c2ccccc2)c2nc(-c3ccccc3OC)c3cc(OC)c(OC)cc3c12` was tested. Which Potency did it give?
**A.** Its Potency is inconclusive: 100 µM [inhibitor, partial curve, poor fit].

**Q.** `CCc1ccc(CNC(=O)c2sc3ncccc3c2-n2c(C)ccc2C)cc1` was tested. Which Potency did it give?
**A.** The Potency was inconclusive: 50.1 µM [inhibitor, partial curve, poor fit].

**Q.** How did the Potency turn out when `Cc1ccc(-c2nc3cc(C(C)C)ccc3o2)cc1NC(=O)c1cc2ccccc2o1` was run?
**A.** Its Potency is inconclusive: 2.82 µM [inhibitor, full curve, poor fit].

**Q.** With `Cc1cc(C)c(NC(=O)C2CCN(c3nc4ccccc4[nH]3)CC2)c(C)c1` as the molecule, how does the Potency read?
**A.** The Potency was inconclusive: 89.1 µM [inhibitor, partial curve, poor fit].

**Q.** How did the Potency turn out when `Cc1ccc(Cl)cc1N1CCN(C(=O)c2cnc(N3CCOCC3)c3ccccc23)CC1` was run?
**A.** Its Potency is inconclusive: 89.1 µM [inhibitor, single point].

**Q.** How did the Potency turn out when `COc1cc(-c2nnc(SCCOc3ccc(Cl)cc3C)o2)cc(OC)c1OC` was run?
**A.** Its Potency is inconclusive: 89.1 µM [inhibitor, partial curve, poor fit].

**Q.** How did the Potency turn out when `CCOCCc1nn2c(=O)cc(COC(=O)CNC(=O)c3ccc(C(C)(C)C)cc3)nc2s1` was run?
**A.** The Potency was inconclusive: 79.4 µM [inhibitor, partial curve, poor fit].

**Q.** `CCOc1ccc(-c2nc(CSCC(=O)N3CCN(c4cccc(C(F)(F)F)c4)CC3)c(C)o2)cc1` was tested. Which Potency did it give?
**A.** The Potency was “inactive”.

**Q.** For `Cc1cc(C(=O)Nc2ccc(C)c(I)c2)c(C)o1`, which Potency is on record?
**A.** Its Potency is “inactive”.

**Q.** Which Potency does the source give for `CCc1ccc(NC(=O)Cn2c(=O)c(-c3ccccc3NC(C)=O)nc3ccccc32)cc1` here?
**A.** The Potency was inconclusive: 89.1 µM [inhibitor, single point].

**Q.** How did the Potency turn out when `COc1ccc2c(c1)Cc1sc(NC(=O)c3ccccc3Br)nc1-2` was run?
**A.** Its Potency is inconclusive: 89.1 µM [inhibitor, partial curve, poor fit].

**Q.** For `CCCCOC(=O)c1ccc(NC(=O)c2cc(-c3ccccc3)on2)cc1`, which Potency is on record?
**A.** Its Potency is inconclusive: 100 µM [inhibitor, single point].

**Q.** Which Potency does the source give for `CCOC(=O)N1CCc2c(sc(NCc3ccc(OCC)cc3)c2C(=O)Nc2ccc(OC)cc2OC)C1` here?
**A.** Its Potency is inconclusive: 56.2 µM [inhibitor, partial curve, poor fit].

**Q.** Which Potency does the source give for `CCc1ccccc1Nc1nn2c(=O)c3ccc(C(=O)NCc4cccs4)cc3nc2s1` here?
**A.** The Potency was “inactive”.

**Q.** Which Potency does the source give for `CCN1C(=O)c2ccccc2Sc2ccc(NC(=O)Nc3ccc(Br)c(C)c3)cc21` here?
**A.** The Potency was inconclusive: 3.16 µM [inhibitor, partial curve, poor fit].

**Q.** `COc1ccc(Nc2nc(N)nc(CSc3nc4ccccc4s3)n2)cc1` was tested. Which Potency did it give?
**A.** Its Potency is inconclusive: 89.1 µM [inhibitor, partial curve, poor fit].

**Q.** `Cc1ccc(-c2ccc(=O)n(CC(=O)NC(C)c3ccccc3)n2)cc1` (configuration not stated) was tested. Which Potency did it give?
**A.** The Potency was inconclusive: 79.4 µM [inhibitor, partial curve, poor fit].

**Q.** How did the Potency turn out when `CCNc1oc(-c2ccc(COc3cc(C)ccc3C)o2)nc1C#N` was run?
**A.** The Potency was inconclusive: 89.1 µM [inhibitor, single point].

**Q.** Which Potency does the source give for `O=C(c1ccc2c(c1)N(Cc1ccccc1F)C(=O)c1ccccc1S2(=O)=O)N1CCCCCC1` here?
**A.** Its Potency is inconclusive: 25.1 µM [inhibitor, partial curve, poor fit].

**Q.** `O=C(CSCc1nc2cccnc2n1C1CCCCC1)NCc1cccc(Br)c1` was tested. Which Potency did it give?
**A.** The Potency was inconclusive: 89.1 µM [inhibitor, single point].
